# Assay results: the supplement of paper PMC12217912
# The other results are listed elsewhere or left out. The full chains were built here from the parent and the listed change. Values near 0.05 are background.
# B1: TEV protease; numbered along this chain (parent)
# chain: MGESLFKGPRDYNPISSSICHLTNESDGHTTSLYGIGFGPFIITNKHLFRRNNGTLVVQSLHGVFKVKDTTTLQQHLVDGRDMIIIRMPKDFPPFPQKLKFREPQREERICLVTTNFQTKSMSSMVSDTSCTFPSGDGIFWKHWIQTKDGQCGSPLVSTRDGFIVGIHSASNFTNTNNYFTSVPKNFMELLTNQEAQQWVSGWRLNADSVLWGGHKVFMVKPEEPFQPVKEATQL
# Variants of: B1
# Test: raw area under fraction-flipped curve 0-4 h after induction (AUC4h, not background-subtracted), DNA-recorder readout of cleavage of the substrate (dimensionless); higher = more cleavage of the substrate by the protease variant
# Conditions: temperature: 34 °C; time window: 0-4 h after rhamnose induction
# Method: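 In vivo DNA recorder in E. coli TOP10(DE3) ΔrhaA at 34 °C. Each TEVp single-site mutant (parent TEVp 0) is paired with a single-site variant of the 7-mer TEVs (canonical ENLYFQ|S). The substrate sits between flexible linkers in a Bxb1-sfGFP-TEVs-SsrA fusion, so cleavage stabilises Bxb1 and speeds flipping of a recombination array, read by NGS. The value is the raw area under the fraction-flipped curve over 0-4 h after rhamnose induction (AUC4h), with ≥20 reads per time point. It is not background-subtracted; inactive controls average about 0.047.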
# 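Note: Bxb1 expression induced with 0.2% (w/v) L-rhamnose at OD600 near 0.5, cultures sampled hourly, flipped fraction per protease–substrate barcode pair counted by paired-end Illumina sequencing.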
Variant,area with substrate ENLYFQA,area with substrate ENLYFQC,area with substrate ENLYFQG,area with substrate ENLYFQI,area with substrate ENLYFQK,area with substrate ENLYFQL,area with substrate ENLYFQM,area with substrate ENLYFQN,area with substrate ENLYFQP,area with substrate ENLYFQS,area with substrate ENLYFQT,area with substrate ENLYFQV,area with substrate ENLYFQW,area with substrate ENLYFQY,area with substrate ENLYFQH,area with substrate ENLYFQD,area with substrate ENLYFQF,area with substrate ENLYFQQ,area with substrate ENLYFQR,area with substrate ENLYFQE
Q59V,0.108,0.121,0.102,0.0583,0.0603,0.0632,0.063,0.0972,0.077,0.106,0.062,0.0645,0.0586,0.0839,,,,,,
S60F,0.0882,0.128,0.108,,0.0531,0.0639,0.0796,,,0.102,0.0952,0.0637,0.0728,0.114,0.0738,,,,,
S60V,0.0915,0.0975,0.101,0.054,0.0578,,0.0793,0.0774,0.0614,0.0908,0.0537,0.0538,0.0451,0.0689,0.0664,0.072,0.109,0.0561,0.0517,
L61A,0.0859,0.104,0.0949,0.0539,,0.0592,,0.111,0.0748,0.0959,0.0658,,,,,0.0736,,0.0451,0.0722,
G63F,0.0832,0.0888,0.0842,0.058,0.0573,0.0702,0.0898,0.0621,0.059,0.0947,,0.063,,,0.0714,0.0733,0.0787,0.0682,,
G63I,0.0788,0.0867,,,0.056,0.0599,,,0.0527,0.0849,0.0772,0.0551,0.0579,,,0.0649,0.0508,,0.0625,
G63N,0.0587,0.0984,0.0853,0.0226,,,0.0812,,,0.0841,0.0607,0.082,,,0.0666,0.0584,,,,
V64N,0.109,0.122,0.119,0.0497,,0.062,0.0675,,,0.103,0.0642,0.0557,0.0565,,,0.0691,0.0743,,0.0431,
F65E,0.0698,,0.0852,,0.0585,,0.0813,0.0757,0.06,0.0846,0.0598,,0.0529,0.0817,,,,,0.0627,0.0649
K66F,0.0919,0.143,0.111,0.0459,,0.0736,,0.0601,0.0615,0.107,0.0596,0.0437,0.0587,,0.0506,0.0685,,0.0747,0.0633,
V67R,0.0559,0.0607,0.0604,0.0528,0.0517,0.0532,,,,0.0608,0.0491,0.0468,0.0479,,,0.0333,0.0412,,0.0554,
K68F,0.0922,0.107,,0.0589,0.0609,0.0581,0.0748,,,0.0927,0.0843,,,,,,,,,
D69H,0.0963,0.0338,0.0683,0.0508,0.0542,0.0597,0.0855,0.0666,0.056,0.094,0.0572,,,,0.0666,0.0054,0.0678,0.0735,0.0549,0.0452
